Test results: PMC9671922, “TOPOVIBL-REC114 interaction regulates meiotic DNA double-strand breaks” (Nature Communications, 2022)
These are yes or no findings as the source states them, for the method shown. Some entries that bind do so weakly or less than the wild type. For part of these data: Sequences can lack the tags named with a protein.

By UniProt entry, the sequences of proteins in these tests, tags left out. Residues count along the entry.
UniProt A0A140LI88, residues 1808-1857: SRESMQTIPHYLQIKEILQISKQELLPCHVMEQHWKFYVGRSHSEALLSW

Tests used:
[1] = target: T1, Strep-REC114^1–159 (mouse) (UniProt Q9CWH4); test: SEC; supernatants of separately expressed Strep-REC114 1-159 and His-MBP-ANKRD31 1808-1857 mixed; complex purified by affinity chromatography and Superdex 200 gel filtration
T1 sequence: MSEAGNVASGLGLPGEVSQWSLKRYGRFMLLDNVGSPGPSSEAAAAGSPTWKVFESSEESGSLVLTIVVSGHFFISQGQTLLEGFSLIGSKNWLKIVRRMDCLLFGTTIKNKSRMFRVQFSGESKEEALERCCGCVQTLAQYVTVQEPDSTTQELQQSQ

[2] = target: T2, REC114, full length (yeast two-hybrid fusion) (mouse) (UniProt Q9CWH4); test: two-hybrid; Gal4 DNA-binding domain (pAS2-derived) and activation domain (pGAD-derived) fusions, diploids of AH109 and Y187; growth on medium lacking leucine, tryptophane and histidine; 30 °C, 3 days
T2 sequence: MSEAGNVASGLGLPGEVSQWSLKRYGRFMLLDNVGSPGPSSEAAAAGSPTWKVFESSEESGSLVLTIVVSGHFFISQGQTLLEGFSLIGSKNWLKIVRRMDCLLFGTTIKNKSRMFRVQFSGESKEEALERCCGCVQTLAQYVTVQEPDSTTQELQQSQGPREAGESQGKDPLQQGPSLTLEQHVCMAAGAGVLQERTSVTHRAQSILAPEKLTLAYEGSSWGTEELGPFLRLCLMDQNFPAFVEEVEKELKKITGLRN

[3] = target: T3, SPO11β, full length (yeast two-hybrid fusion) (mouse) (UniProt Q9WTK8); test: as above
T3 sequence: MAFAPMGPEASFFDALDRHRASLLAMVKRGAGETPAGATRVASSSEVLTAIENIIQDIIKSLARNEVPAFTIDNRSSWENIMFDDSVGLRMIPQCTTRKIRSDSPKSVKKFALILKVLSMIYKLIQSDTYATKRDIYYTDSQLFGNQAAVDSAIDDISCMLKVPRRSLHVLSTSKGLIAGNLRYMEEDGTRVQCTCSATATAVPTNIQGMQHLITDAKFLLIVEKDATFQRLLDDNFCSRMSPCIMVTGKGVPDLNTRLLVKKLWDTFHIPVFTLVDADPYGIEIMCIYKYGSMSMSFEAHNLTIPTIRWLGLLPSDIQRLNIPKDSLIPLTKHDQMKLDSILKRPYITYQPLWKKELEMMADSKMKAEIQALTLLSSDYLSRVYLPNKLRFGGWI

[4] = target: T4, REC114 lacking the first 39 amino acids (40–259) (yeast two-hybrid fusion) (mouse) (UniProt Q9CWH4); test: two-hybrid; Gal4 DNA-binding domain (pAS2-derived) and activation domain (pGAD-derived) fusions, diploids of AH109 and Y187; growth on medium lacking leucine, tryptophane and histidine with 5 mM 3-amino-1,2,4-triazole; 30 °C, 3 days
T4 sequence: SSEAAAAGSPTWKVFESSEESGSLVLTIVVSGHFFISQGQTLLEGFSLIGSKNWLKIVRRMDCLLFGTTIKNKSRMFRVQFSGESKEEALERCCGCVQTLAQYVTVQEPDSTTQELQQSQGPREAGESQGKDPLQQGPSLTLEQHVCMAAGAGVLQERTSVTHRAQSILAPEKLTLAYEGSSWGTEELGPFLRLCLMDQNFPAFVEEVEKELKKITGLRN

[5] = target: T2, REC114, full length (yeast two-hybrid fusion) (mouse); test: as above
[6] = target: T5, Strep-tagged full-length REC114 (mouse) (UniProt Q9CWH4); test: SEC; Superose 6 gel filtration; REC114 and MEI4 1-127 run as a preformed complex, how the two were brought together is not told
T5 sequence: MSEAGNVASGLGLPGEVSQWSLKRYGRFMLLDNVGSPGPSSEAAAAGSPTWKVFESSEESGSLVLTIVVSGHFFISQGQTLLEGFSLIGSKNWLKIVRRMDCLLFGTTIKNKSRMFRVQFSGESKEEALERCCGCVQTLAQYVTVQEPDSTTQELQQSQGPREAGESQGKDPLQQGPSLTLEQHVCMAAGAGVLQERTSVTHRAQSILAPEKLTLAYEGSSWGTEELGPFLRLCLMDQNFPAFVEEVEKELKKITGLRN

[7] = target: T1, Strep-REC114^1–159 (mouse); test: pull-down; Strep-tagged REC114 held on Strep-Tactin XT resin; wash 100 mM Tris pH 8, 100 mM NaCl, 5 mM β-mercaptoethanol; elution with 50 mM D-biotin; SDS-PAGE, coomassie; both purified

“His-MBP-ANKRD31^1808–1857 (from UniProt A0A140LI88 1808-1857) (domain or fragment)” was tested, and the binding [1] was “binds”.

B1: TOPOVIBL, full length (yeast two-hybrid fusion) (protein, UniProt J3QMY9 1-579)
chain: MERTALAVCEILRYLIIHWKCEAGTAKGTLLDGQLVISIEALRSKHLPDSLHCIITIASTRSVYGGLNFKKFLQEIQPALPRLSAKLALASEEGGRSQDASGIAPCQVTFEVDENSQSLMTDCLVIKHFLRKIIIVHHKLKFSFSVAVNGTLSAETFGAENEPTLRLDNGVTLVVGFQRYVSKPKLNWSEAHCSRIHPVLGHPAPLFIPDAKADTGLLGELTLTPAAALCPSPKGFSSQLCRISSVSIFLYGPLGLPLLSSDQDQPSTAVFRDTSYFIDWKKYNLFMVPNLDLNLDTQSVLPDVNYKAESPEGNQSQNMNAQGPALLLFLFVDFQSDVPVQQAKIWGLHTLLTAHLSAILSESRSTVQQSIQSAVDQVWQLYHHDAKTQQRLQASLSVAVNSIMSVLTGSTRSSFRKTCLQALEAADTQEFGVKLHRIFYDITQHQFLKHCSCDTEQHLTPEKNISAQNTKDQHKNIAQEFPEESIGQAENKRPKRGSPNHGREESRVLGSARDRSPPKSATRDRELTEVSLTARGSQTQAAHGRAQAAEAASPAGGLEDLWLQEVSNLSEWLNPGHRS
In the case of B1, the binding [2] is reported as “binds”, the binding [3] is reported as “binds” and the binding [4] is reported as “no binding”. The binding [5] was “binds”.

B2: MEI4^1–127 (domain or fragment, UniProt Q8BRM6 1-127)
chain: MDIQPWYLKTSKLALALAIIHSKPADRSSREYTEYLASLVTQKESTWKSKLEALEAEVLQLRQKLLLSRISSGLFKNGPDVLPTLSDQEPTSSENTLTLMDDSGCVLSNEQRNEPAELSQHFVESTD
In the case of B2, the binding [6] is reported as “binds”.

B3: TOPOVIBL^1–550 (yeast two-hybrid fusion) (domain or fragment, UniProt J3QMY9 1-550)
chain: MERTALAVCEILRYLIIHWKCEAGTAKGTLLDGQLVISIEALRSKHLPDSLHCIITIASTRSVYGGLNFKKFLQEIQPALPRLSAKLALASEEGGRSQDASGIAPCQVTFEVDENSQSLMTDCLVIKHFLRKIIIVHHKLKFSFSVAVNGTLSAETFGAENEPTLRLDNGVTLVVGFQRYVSKPKLNWSEAHCSRIHPVLGHPAPLFIPDAKADTGLLGELTLTPAAALCPSPKGFSSQLCRISSVSIFLYGPLGLPLLSSDQDQPSTAVFRDTSYFIDWKKYNLFMVPNLDLNLDTQSVLPDVNYKAESPEGNQSQNMNAQGPALLLFLFVDFQSDVPVQQAKIWGLHTLLTAHLSAILSESRSTVQQSIQSAVDQVWQLYHHDAKTQQRLQASLSVAVNSIMSVLTGSTRSSFRKTCLQALEAADTQEFGVKLHRIFYDITQHQFLKHCSCDTEQHLTPEKNISAQNTKDQHKNIAQEFPEESIGQAENKRPKRGSPNHGREESRVLGSARDRSPPKSATRDRELTEVSLTARGSQTQAAHGRAQAAE
For B3, the binding [2] was “no binding” and the binding [3] was “binds”.

B4: TOPOVIBL W562A, full length (yeast two-hybrid fusion) (protein, UniProt J3QMY9 1-579)
chain: MERTALAVCEILRYLIIHWKCEAGTAKGTLLDGQLVISIEALRSKHLPDSLHCIITIASTRSVYGGLNFKKFLQEIQPALPRLSAKLALASEEGGRSQDASGIAPCQVTFEVDENSQSLMTDCLVIKHFLRKIIIVHHKLKFSFSVAVNGTLSAETFGAENEPTLRLDNGVTLVVGFQRYVSKPKLNWSEAHCSRIHPVLGHPAPLFIPDAKADTGLLGELTLTPAAALCPSPKGFSSQLCRISSVSIFLYGPLGLPLLSSDQDQPSTAVFRDTSYFIDWKKYNLFMVPNLDLNLDTQSVLPDVNYKAESPEGNQSQNMNAQGPALLLFLFVDFQSDVPVQQAKIWGLHTLLTAHLSAILSESRSTVQQSIQSAVDQVWQLYHHDAKTQQRLQASLSVAVNSIMSVLTGSTRSSFRKTCLQALEAADTQEFGVKLHRIFYDITQHQFLKHCSCDTEQHLTPEKNISAQNTKDQHKNIAQEFPEESIGQAENKRPKRGSPNHGREESRVLGSARDRSPPKSATRDRELTEVSLTARGSQTQAAHGRAQAAEAASPAGGLEDLALQEVSNLSEWLNPGHRS
B4 was tested, and the binding [5] was “no binding”.

B5: TOPOVIBL W562G, full length (yeast two-hybrid fusion) (protein, UniProt J3QMY9 1-579)
chain: MERTALAVCEILRYLIIHWKCEAGTAKGTLLDGQLVISIEALRSKHLPDSLHCIITIASTRSVYGGLNFKKFLQEIQPALPRLSAKLALASEEGGRSQDASGIAPCQVTFEVDENSQSLMTDCLVIKHFLRKIIIVHHKLKFSFSVAVNGTLSAETFGAENEPTLRLDNGVTLVVGFQRYVSKPKLNWSEAHCSRIHPVLGHPAPLFIPDAKADTGLLGELTLTPAAALCPSPKGFSSQLCRISSVSIFLYGPLGLPLLSSDQDQPSTAVFRDTSYFIDWKKYNLFMVPNLDLNLDTQSVLPDVNYKAESPEGNQSQNMNAQGPALLLFLFVDFQSDVPVQQAKIWGLHTLLTAHLSAILSESRSTVQQSIQSAVDQVWQLYHHDAKTQQRLQASLSVAVNSIMSVLTGSTRSSFRKTCLQALEAADTQEFGVKLHRIFYDITQHQFLKHCSCDTEQHLTPEKNISAQNTKDQHKNIAQEFPEESIGQAENKRPKRGSPNHGREESRVLGSARDRSPPKSATRDRELTEVSLTARGSQTQAAHGRAQAAEAASPAGGLEDLGLQEVSNLSEWLNPGHRS
For B5, the binding [5] was “no binding”.

B6: 6xHis-TOPOVIBL^452–579 W562A (domain or fragment, UniProt J3QMY9 452-579)
chain: SCDTEQHLTPEKNISAQNTKDQHKNIAQEFPEESIGQAENKRPKRGSPNHGREESRVLGSARDRSPPKSATRDRELTEVSLTARGSQTQAAHGRAQAAEAASPAGGLEDLALQEVSNLSEWLNPGHRS
With B6 the binding [7] was “no binding”.

B7: 6xHis-TOPOVIBL^452–579 W562E (domain or fragment, UniProt J3QMY9 452-579)
chain: SCDTEQHLTPEKNISAQNTKDQHKNIAQEFPEESIGQAENKRPKRGSPNHGREESRVLGSARDRSPPKSATRDRELTEVSLTARGSQTQAAHGRAQAAEAASPAGGLEDLELQEVSNLSEWLNPGHRS
For B7, the binding [7] was “no binding”.

B8: 6xHis-TOPOVIBL^452–579 V566R (domain or fragment, UniProt J3QMY9 452-579)
chain: SCDTEQHLTPEKNISAQNTKDQHKNIAQEFPEESIGQAENKRPKRGSPNHGREESRVLGSARDRSPPKSATRDRELTEVSLTARGSQTQAAHGRAQAAEAASPAGGLEDLWLQERSNLSEWLNPGHRS
In the case of B8, the binding [7] is reported as “no binding”.

B9: 6xHis-TOPOVIBL^452–579 L569R (domain or fragment, UniProt J3QMY9 452-579)
chain: SCDTEQHLTPEKNISAQNTKDQHKNIAQEFPEESIGQAENKRPKRGSPNHGREESRVLGSARDRSPPKSATRDRELTEVSLTARGSQTQAAHGRAQAAEAASPAGGLEDLWLQEVSNRSEWLNPGHRS
In the case of B9, the binding [7] is reported as “no binding”.

B10: 6xHis-TOPOVIBL^452–579 W572L (domain or fragment, UniProt J3QMY9 452-579)
chain: SCDTEQHLTPEKNISAQNTKDQHKNIAQEFPEESIGQAENKRPKRGSPNHGREESRVLGSARDRSPPKSATRDRELTEVSLTARGSQTQAAHGRAQAAEAASPAGGLEDLWLQEVSNLSELLNPGHRS
With B10 the binding [7] was “no binding”.
